In the RNAGym collection of RNA variant scans (doi:10.1073/pnas.2313332121):
Variants at the floor of the assay are shown more often than the library holds them.

B1: TPR 5TU (parent)
chain: GGAUCUUCUCGAUCUAACAAAAAAGACAAAUCUGCCACAAAGCUUGAGAGCAUCUUCGGAUGCAGAGGCGGCAGCCUUCGGUGGCGCGAUAGCGCCAACGUUCUCAACUAUGACACGCAAAACGCGUGCUCCGUUGAAUGGAGUUUAUCAUG

Variants of: B1
Assay: polymerase ribozyme fitness, log enrichment relative to wild type (log ratio); higher = more active; in vitro selection for triplet polymerase activity
In short: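 Genotype fitness is the logarithm of its enrichment divided by wild-type enrichment, using inverse-variance-weighted averages of replicates. That logarithm is base 2. Enrichment was measured by Illumina sequencing of input and output libraries from one triplicate in vitro selection round, with frozen incubation at −7 °C, on PCR-built, transcribed mutant libraries of each subunit of a heterodimeric triplet polymerase ribozyme, retaining genotypes with ≥10 input reads and ≥1 read per output.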

Polymerase ribozyme fitness (log ratio), -3.45:
U31C C95A C96A U134C G143A U145G

Polymerase ribozyme fitness (log ratio), -1.23:
U31A C96U C99A

Polymerase ribozyme fitness (log ratio), -3.62:
U31G U53A A91G A122G

Polymerase ribozyme fitness (log ratio), -3.06:
U31C C93G

Polymerase ribozyme fitness (log ratio), 0.083:
U31G U56A

Polymerase ribozyme fitness (log ratio), ≤ -4.2:
A30U U44A C105U U148A
A30U U44A G46C C57A U90A A97U G140U
A30U U44A G136U
A30U U44A U82A A91G
A30U U45A G94U C131G
A30U U53A U102G G117U
A30U U53G C76A G92A A115C
A30U U55G C76G A91C
A30U U56A C93U G124U G126A
A30U U56A G58U C79A C93U C108G U111A A138G
A30U U56G C85A A121G
A30U U61A C95G U101G U102G C105A C118G
A30U U77C U111G
A30U U77G G84U C129G G152C
A30U U151G
U31A A37C U55A G86U A110G
U31A A39C G59U C87U U90A G136A U145C
U31A A39U A52U U56A A115G A119U U144A U148G
U31A A47C C75U A98U G141U
U31A A47G G65U G70C G86A A122U
U31A A49C C99G C108G
U31A A52C C85U C96U C114U U134A
U31A A52G A60C G62A G71U U144G
U31A A52U G62U C87U U102G G140C G141U
U31A A64C G65U C69U G86A
U31A A64G G83U G94U A138U A147U
U31A C32A A41C G86U A106U A138U
U31A C32A A60C C63U C79A A98G G112C G136C U148A
U31A C32G U56A G62U A64U C95U A122C
U31A C32U U33C G34U C79A G84A C87U C103A
U31A C36G C95G
U31A C38A A49G A91U
U31A C38U A52U A60C A106G G128A
U31A C38U G48C U61A C79G C85U U102G C105G U144C
U31A C38U U44G G86U A142C
U31A C38U U45A U53A C87U C93A U102G
U31A C43A C57G
U31A C43A C85U C93G
U31A C43A U53A G83A A97C A150G
U31A C63G G67A A89G A91C C93U A147C
U31A C75G C76G C96A U145G
U31A C76G C85U A89C U139G
U31A C76U G124U U139C U145C
U31A C85G A91C G100C C123A G133A A138U G143C
U31A C87G G94A C96U A113G U139C
U31A C93G C95U C96A A113G
U31A G46C A47C G94A U145G
U31A G48U C51G C114U U148A
U31A G58A U77G
U31A G58C G74C U139C U146A
U31A G58U G81U C93A C108G U135A
U31A G67U G83A C85A U104G C105U G136A
U31A G67U U82A C85U C105U C116U U144C
U31A G88U U127C
U31A U33C U55A A98U A106C C118A U146G
U31A U44A A49C G58A C75G A107U
U31A U55A C87U A91C C93A C96U A119G G126A G141U
U31A U56A G70C G94C U130G
U31A U56G C69A C93G C103A C105A U144C U148G
U31C A37C A49C U56C C85U
U31C A37C G67C G68U G86A U144C
U31C A39U C57A C95U A113C A119U
U31C A40U C57U G143U U148G
U31C A41C A91C C95G U139A G143C
U31C A41G A66C G68C C95G
U31C A41U G80U G86U C105U A115C A119C G140A U144A
U31C A47C A52C G68A C95G
U31C A49C A52C A66C G143C U148G
U31C A49C G94U A121U
U31C A52C U56A U82C A107U
U31C C32A A40C G83A
U31C C32A A115U U130G
U31C C32A C57U G84A G100A A121U G140C A147U
U31C C35A C51U C76G G80C C96U A119G U134A
U31C C51A C69U G81A A91U G124A U144G
U31C C54A C93G G152C
U31C C57G C76A C93A C95G
U31C C63U G67A G74U C95U C116U C118G C125G
U31C C72A G84A G133U U135G G141C
U31C C96U U104A C123U G126A A142C A147C
U31C G34C A39U G83U C116G
U31C G50U U56A G59A G94U U101G C103A C116U C131A U148A
U31C G80C G124A U146A U151A
U31C U44A A73G C108U C125A
U31C U44A G94C C96G U102G U151C
U31C U45A G70C G92C
U31C U56A C93G A97U U151A
U31C U77A A89U G92A
U31G A37C C51U G58U G70C C79U A106U
U31G A37C U61A G126C U145C
U31G A37U G58C C76U U111G
U31G A39G U55A A66C G68C C69U G117A
U31G A40U G48A G84A C87U A119U
U31G A41C C54G A73U C79A G143C
U31G A47C A60C G65U
U31G A49C A60G
U31G A52C C87U C93G
U31G A52G A66U G68A A91G C96A G112A A119U G136U
U31G A52G G92A C99G
U31G A73C U127C
U31G A110C A138C
U31G C32U C72A C123G G152A
U31G C35A C87A U101G C108U A120G C149A U151A
U31G C35G A52C G70A C116U U139A A142C
U31G C35G C43U C72A G92A
U31G C35U A66G G68C G74U C76G G84A C93A
U31G C36A U44G G50U A89G C99U A115C U151C
U31G C38A C93G G141C
U31G C43A G94C G128A G141U G152U
U31G C43G U53A G83U
U31G C43U C57U C93G A122C
U31G C51G C75G C76A
U31G C79U U90G A106G C108A A137C
U31G C85U C87A U109G G128A
U31G C87A A107U U111A A121C C131G
U31G G42A C57U C79A G84U C87G A120U U127C U139A U144C
U31G G42C U151A
U31G G42U U45A U78G G84U A91C A97U A115U
U31G G50A C51U G62C G68U C95U U101G A106C
U31G G59U A138U
U31G G74U C108U
U31G G83C C85G
U31G G84C A97U U127G C149G
U31G G84U C103A G126C
U31G G94U U104A G136A A147C
U31G U33A A60U C95A A107U G133C
U31G U44A A49C C96A A115U C118U A119C
U31G U44A A66G C99G C114U G124U C149A
U31G U44A G94U C99G G128A U130G G152U
U31G U45A A49C U82G C85U C96A A97G A110U G117U G128C
U31G U53A U90G U139A
U31G U55A A60C G92U C93A C125G U134A
U31G U55A G59C C79A C85U C116A A138U U151G
U31G U56A G68A C95U A115U
U31G U61A A66G U90C U101C
U31G U61A A66U U77A G86U C95G C123G
U31G U77C A91C C108U
U31G U78G C95A
C32A A37C C95U
C32A A37C U44G G70A A113C

Polymerase ribozyme fitness (log ratio), -0.547:
U31G G94U A119U

Polymerase ribozyme fitness (log ratio), 1.96:
U31C C116A

Polymerase ribozyme fitness (log ratio), -1.82:
U31A U134A

Polymerase ribozyme fitness (log ratio), -2.6:
U31A C54A G84U C85U

Polymerase ribozyme fitness (log ratio), -1.41:
U31C A98U U134A
U31G A89G C95U

Polymerase ribozyme fitness (log ratio), -3:
U31C C36G U56A G70C G94A C129G

Polymerase ribozyme fitness (log ratio), 1.27:
U31C U55A A97G

Polymerase ribozyme fitness (log ratio), -1.84:
U31A A91G U144G

Polymerase ribozyme fitness (log ratio), 0.158:
U31C G92C G126U

Polymerase ribozyme fitness (log ratio), -2.71:
U31G C54U U109G A137G

Polymerase ribozyme fitness (log ratio), 0.14:
U31C G143A

Polymerase ribozyme fitness (log ratio), -1.97:
U31G G50U U56G

Polymerase ribozyme fitness (log ratio), -4.03:
U31G A91U
U31G C38G U101G U139C U146G

Polymerase ribozyme fitness (log ratio), 0.37:
U31A

Polymerase ribozyme fitness (log ratio), -1.26:
U31C C85G A98G

Polymerase ribozyme fitness (log ratio), 0.625:
U31G G59A

Polymerase ribozyme fitness (log ratio), 0.749:
U31G

Polymerase ribozyme fitness (log ratio), -1.02:
U31G C54G

Polymerase ribozyme fitness (log ratio), -0.747:
U31G G84A A89G

Polymerase ribozyme fitness (log ratio), -2.75:
U31C C35U A41G C54U G86C
